We go through 94 compounds from PubChem BioAssay AID485344 (National Center for Advancing Translational Sciences (NCATS), 2010).

Several values for one entry are separate records, joined by “and”; a condition that tells them apart may be missing. Equal values may be shown once. The whole screen tested about 340,000 compounds, of which about 6,900 (2%) were called active. Cut-off read from the data, not from the text of the source: active = inhibition above about 30%; inactive = below that, where a call was filed. The entries are a selection whose mix differs from that of the whole data set. Where no call is shown, the source filed none. Where a structure was tested more than once in an assay, its records may differ in their call.

The experiment addresses D(2) dopamine receptor (Homo sapiens) (UniProt P14416). Kind of experiment: HTS Assay for Allosteric Antagonists of the Human D2 Dopamine Receptor: Primary Screen for Antagonists. Note: 0% is about no effect. The note with it: HEK293 TREx D2 cells, calcium flux, dopamine EC80; at 10 µM; stronger effect = higher value. A digest of the protocol: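 Calcium mobilization kinetics were recorded at 1 s intervals in tetracycline-induced HEK293 T-REx D2 cells, first for 180 s after compound addition and then 180 s after EC80 dopamine.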
UniProt P14416, sequence (P14416 whole entry, looked up): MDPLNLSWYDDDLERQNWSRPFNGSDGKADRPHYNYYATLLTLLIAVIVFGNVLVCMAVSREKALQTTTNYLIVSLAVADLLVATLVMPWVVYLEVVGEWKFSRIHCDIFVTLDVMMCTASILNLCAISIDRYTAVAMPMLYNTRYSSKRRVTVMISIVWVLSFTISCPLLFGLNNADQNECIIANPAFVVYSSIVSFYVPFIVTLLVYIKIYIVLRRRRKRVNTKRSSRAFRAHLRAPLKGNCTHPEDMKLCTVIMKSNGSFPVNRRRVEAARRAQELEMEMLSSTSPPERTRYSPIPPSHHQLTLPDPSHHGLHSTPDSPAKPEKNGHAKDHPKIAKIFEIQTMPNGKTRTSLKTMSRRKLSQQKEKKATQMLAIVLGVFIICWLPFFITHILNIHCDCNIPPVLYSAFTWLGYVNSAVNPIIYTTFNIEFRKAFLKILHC
Background: Calcium flux is commonly read through the fluorescence of an indicator in the cells.
As usually defined, the inhibition is the change of the read-out against control, counted positive when it falls. As for `COC(=O)c1sccc1S(=O)(=O)N(CC(=O)Nc1cc(C)ccc1C)c1ccc(C)c(C)c1`, the inhibition was -0.938%.

With `CCC(C)NC(=O)c1ccc2c(c1)sc1nc(-c3ccc(OC)cc3)cn12` (centres undefined), the inhibition is 2.49%.

On to `Cc1ccc(N2CC(NC(=O)c3ccc(S(=O)(=O)N(C)C)cc3)CC2=O)cc1C` (centres undefined), for which the inhibition is -21.3%.

Turning to `CCOc1ccc(CCNC(=O)c2ccc(-n3c(C)cc4c3CCCC4)cc2)cc1OCC`, the inhibition amounted to 9.81%.

Take `CCCc1nnc(-c2cc(OC)c(OC)c(OC)c2)o1`: the inhibition is active: 30%.

Turning to `CCOc1ccc(N2CC(NC(=O)c3ccc4c(c3)OCO4)CC2=O)cc1` (centres undefined), the inhibition amounted to 0.0204%.

With `CC(C)(C)c1nn(-c2ccccc2)c2[nH]c(=O)c(C=O)cc12`, the inhibition is active: 38.8%.

In the case of `CCCCNc1nc2c(S(=O)(=O)c3ccc(C)cc3)nnn2c2ccsc12`, the inhibition was -10.9%.

Regarding `CCOCCc1nnc(NC(=O)C(=O)c2cc(C)n(-c3ccc(C)c(C)c3)c2C)s1`, the inhibition turned out to be 11.7%.

As for `O=C(Nc1ccccc1C(=O)OCc1cc(=O)n2nc(C3CC3)sc2n1)c1ccc(Cl)cc1`, the inhibition came out at 9.29%.

Turning to `Cc1ccc(C)c(N2CCN(c3nc4ccc(C)cc4nc3-n3nc(C)cc3C)CC2)c1`, the inhibition was found to be 9.24%.

Regarding `Cc1cc(C)n(CCC(=O)Nc2ccc(Cl)cc2)n1`, the inhibition was found to be 14.1%.

With `Cc1c(C)n(Cc2ccccc2)c2ccc(C(=O)NCC(C)c3ccccc3)cc12` (centres undefined), the inhibition worked out at 12.4%.

For `Cc1ccc(N2CCN(S(=O)(=O)c3nnc(NC(=O)c4ccccc4)s3)CC2)cc1`, the inhibition was -18.4%.

On to `CCCc1ccc(OCc2ccc(C(=O)N3CCSCC3)o2)cc1`, for which the inhibition is active: 38.6%.

On to `COc1ccc(N2CCN(C(=O)c3cc4c(=O)oc5ccc(C)cc5c4s3)CC2)cc1`, for which the inhibition was -15.4%.

With `CCc1ccc2ncc3c(-c4ccc(F)cc4)nn(CC(=O)NC4CCCCC4)c3c2c1`, the inhibition was 10.5%.

As for `CCOC(=O)Cn1c(=O)n(-c2cccc(Cl)c2)c2nc(-c3ccccc3Cl)nc(C(N)=O)c21`, the inhibition is -7.93%.

Regarding `CN(C)c1ccc(CNC(=O)Cc2ccc(NC(=O)N3CCCCc4ccccc43)cc2)cc1`, the inhibition was -7.25%.

Consider `Cc1ccccc1OC(=O)c1nc(SCc2ccccc2F)ncc1Cl`, for which the inhibition was -22.9%.

As for `CC(=O)N1c2ccc(S(=O)(=O)N3CCC(C(=O)Nc4cccc(Cl)c4C)CC3)cc2CC1C` (centres undefined), the inhibition was found to be 5.21%.

As to `N#CC(C#N)=C1C=C2C=C(N3CCCCCC3)CCC2CC1` (centres undefined), the inhibition is active: 82.9%.

`O=C(NCCCN1CCN(c2cccc(Cl)c2)CC1)c1nc(-c2ccncc2)no1`: the inhibition was active: 82.5%.

On to `Cc1cccc(Cn2cc(S(=O)(=O)c3ccccc3)c(=O)c3cc(F)c(N4CCOCC4)cc32)c1`, for which the inhibition came to 5.79%.

`Cc1cccc(C)c1NC(=O)C1CCCN1S(=O)(=O)c1ccccc1` (centres undefined): the inhibition was -7.24%.

For `COc1ccc(OC)c(CNS(=O)(=O)c2ccc3c(c2)oc(=O)n3C)c1`, the inhibition worked out at 5.57%.

Consider `COc1ccc(-c2nc3ccccc3o2)cc1NC(=O)COc1ccc(C)c(C)c1`, for which the inhibition was -1.61%.

Regarding `CCOc1ccc(C(=O)Nc2cccc(C(=O)OCc3cc(=O)n4cc(C)sc4n3)c2)cc1`, the inhibition is -20.1%.

As for `Cc1cccc2nc(Cn3c(=O)n(-c4ccc(Cl)cc4)c(=O)c4c5c(sc43)CCC5)cc(=O)n12`, the inhibition is -12.7%.

Take `COc1ccc(S(=O)(=O)N(CC(=O)N2CCc3ccccc3C2)c2ccc(C)cc2)cc1`: the inhibition is -12.1%.

Turning to `COc1ccc(N2C(=O)CS(=O)(=O)C23C(=O)N(Cc2ccccc2F)c2ccccc23)cc1Cl` (centres undefined), the inhibition is -5.57%.

As to `Cc1nn(C(C)C(=O)N2CCN(c3ccc(F)cc3)CC2)c(=O)c2c1sc1ccccc12` (centres undefined), the inhibition was -0.532%.

Turning to `CCn1cc(C(=O)NCCc2ccccc2)c(=O)c2cc(S(=O)(=O)N3CCCCCC3)ccc21`, the inhibition is 12.6%.

For the compound `Cc1nnc(NC(=O)CCC(=O)N2CCN(CCOc3cccc4ccccc34)CC2)s1`, the inhibition was active: 52.4%.

With `COc1ccc(Br)cc1CNC(=O)c1cc(=O)[nH]c2ccc(S(=O)(=O)N3CCCCC3C)cc12` (centres undefined), the inhibition is -14.9%.

Take `CCCNC(=O)C1CCC(Cn2c(=O)c3sccc3n(CC(=O)NCc3ccccc3)c2=O)CC1` (centres undefined): the inhibition was 2.55%.

`CCOC(=O)c1ccc(NC(=O)CCCc2nc(-c3cc(OC)c(OC)c(OC)c3)no2)cc1`: the inhibition was 10.5%.

For `CCOc1ccc(S(=O)(=O)N(CC(=O)Nc2ccc(OC)cc2OC)c2ccccc2)cc1`, the inhibition is -16.3%.

Turning to `Cc1nn(CCCC(=O)NCc2ccccc2Br)c(=O)c2c1sc1ccccc12`, the inhibition is 16.4%.

With `CCn1c(SCC(N)=O)nc2ccccc2c1=O`, the inhibition is active: 37.2%.

Regarding `COc1ccc(C)cc1NC(=O)C(=O)NCCc1sc(-c2cccc(C)c2)nc1C`, the inhibition is -8.71%.

Take `Cc1cc(C)cc(NC(=O)Cc2csc(COc3cccc(C)c3)n2)c1`: the inhibition was -6.86%.

Consider `Cc1ccccc1C(=O)Nc1ccc(S(=O)(=O)N2CCC(c3nc4ccccc4s3)CC2)cc1`, for which the inhibition is 16.7%.

Regarding `Cc1cccc(NC(=O)c2cnc3sc(N4CCCC4)nn3c2=O)c1C`, the inhibition is -3.23%.

Take `CSCCC(NS(=O)(=O)c1ccc2c(c1)oc(=O)n2C)C(=O)Nc1ccc(F)c(Cl)c1` (centres undefined): the inhibition was 15.4%.

As to `COc1ccc(NC(=O)c2c(NCc3cccc(F)c3)sc3c2CCC3)c(OC)c1`, the inhibition was -3.92%.

As to `COc1ccc(OC)c(CNC(=O)c2c(C)oc3ncn(CC(C)C)c(=O)c23)c1`, the inhibition was -4.19%.

Consider `CCCCOc1ccc(C2=NC(c3cccs3)=Nc3ccc(OC)cc3N2)cc1`, for which the inhibition was 3.95%.

On to `Cc1nn(C)c(C)c1S(=O)(=O)N(CC(=O)NCCc1ccc(Cl)cc1)c1ccc(C(C)C)cc1`, for which the inhibition was -1.99%.

On to `COc1ccc(NC(=O)NC2CC3CCCC(C2)N3Cc2ccccc2)cc1` (centres undefined), for which the inhibition was active: 46%.

`COc1cccc2sc(N(Cc3cccnc3)C(=O)c3ccco3)nc12`: the inhibition is -8.18%.

As for `O=C(NCC(c1cccnc1)N1CCN(c2ccccc2F)CC1)c1ccc(F)cc1` (centres undefined), the inhibition is 15.7%.

Consider `CCC1CCc2nc3sc(C(=O)Nc4cccc(F)c4)c(N)c3cc2C1` (centres undefined), for which the inhibition is -7.79%.

For `CCOC(=O)c1c(C)[nH]c(C)c1S(=O)(=O)NCC(=O)Nc1cccc(SC)c1`, the inhibition amounted to 3.33%.

As for `COc1cccc(NC(=O)CSc2nc(C)c(Cc3ccccc3)c(=O)[nH]2)c1`, the inhibition is -6.14%.

On to `Cc1cccc(-c2nc3c4c(-c5ccccc5)c(-c5ccccc5)oc4ncn3n2)c1`, for which the inhibition was -17.9%.

As for `Cc1ccc(C2N=C(N)Nc3nc4ccccc4n32)cc1` (centres undefined), the inhibition was -21.1%.

For `CCN(CC)c1ccc(C(=O)NCc2nc3cccnc3n2Cc2ccc(C)cc2)cc1`, the inhibition came to 15.9%.

On to `Cc1cccc(NC(=O)Cn2cc(S(=O)(=O)N3CCCC3)c(S(=O)(=O)N3CCCC3)c2)c1C`, for which the inhibition is -0.341%.

Take `CCOC(=O)c1cccc(NC(=O)CCn2c(=O)oc3ccccc32)c1`: the inhibition was 9.62% and active: 32.1%.

With `Cc1c(C)c2c(cc(C)c3c(-c4ccc(Br)cc4)coc32)oc1=O`, the inhibition was -10%.

On to `CCC(Oc1ccccc1)C(=O)Nc1cccc(OCc2cc(=O)n3cccc(C)c3n2)c1` (centres undefined), for which the inhibition came out at 10.6%.

Turning to `CC(=O)c1ccc(NC(=O)Cn2c(=O)cc(C)c3c(C)nn(-c4cccc(F)c4)c32)cc1`, the inhibition turned out to be 6.14%.

Regarding `COc1ccc(S(=O)(=O)c2c(Nc3cccc(Cl)c3)sc(C(=O)c3ccccc3)c2N)cc1`, the inhibition is -2.85%.

Turning to `COc1ccc(/C=C/c2nc(C#N)c(N3CCCCC3)o2)cc1OC`, the inhibition is -1.68%.

With `CCc1ccc(NC(=O)Cn2ncn3c(cc4ccccc43)c2=O)cc1`, the inhibition is 5%.

`Cc1ccc2c(=O)cc(C(=O)Nc3c(C)cccc3C)oc2c1`: the inhibition came to 4.23%.

For the compound `O=C(CCCCCn1c(=O)[nH]c2ccccc2c1=O)NCCc1c[nH]c2ccccc12`, the inhibition was active: 39.1%.

As to `Cc1cc2c(cc1S(=O)(=O)NCc1ccc(F)cc1)OCCN2C`, the inhibition was determined as 12.9%.

`CCCCN(Cc1cc2cc(C)ccc2[nH]c1=O)C(=O)c1cccc(Cl)c1`: the inhibition was -3.15%.

In the case of `Cc1nc2c3ccccc3nc(NNC(=O)CCC(=O)N3CCN(c4ccc(F)cc4)CC3)n2n1`, the inhibition turned out to be 4.83%.

On to `CCOc1ccc(CCNC(=O)CSCC(=O)Nc2ccc(OC)cc2)cc1OCC`, for which the inhibition was active: 31.4%.

As for `Cc1cccc(NC(=O)CSc2cn(CC(=O)N3CCOCC3)c3ccccc23)c1C`, the inhibition came to 4.6%.

For `Cc1ccc2nc(COc3ccccc3NC(=O)Nc3ccc(F)c(Cl)c3)cc(=O)n2c1`, the inhibition is -2.15%.

Regarding `CCC(=O)N1CCc2cc(Br)cc(S(=O)(=O)N3CCCC(C(=O)NCc4ccc(C)cc4)C3)c21` (centres undefined), the inhibition turned out to be 15.3%.

Regarding `Cc1ccc(-n2c3nc(=O)n(C)c(=O)c-3cc3ccccc32)c(C)c1`, the inhibition was -19.8%.

For `COc1ccc(NC(=O)C2CCN(C(=O)Nc3ccccc3)CC2)cc1S(=O)(=O)N(C)C`, the inhibition is active: 77.2%.

For the compound `CCc1cccc(CC)c1NC(=O)CN(C)S(=O)(=O)c1ccc2c(c1)n(C)c(=O)c(=O)n2C`, the inhibition was -5.49%.

Regarding `CSc1nn(Cc2ccc(F)cc2)c(N(C(C)=O)C(C)=O)c1S(=O)(=O)c1ccccc1`, the inhibition is -5.53%.

As to `Cc1ccc(C(=O)CSc2nc(C)cc(C)c2C(=O)Nc2cccc(C)c2)cc1`, the inhibition amounted to 9.69%.

In the case of `COc1cccc(CNC(=O)C2CCCN(c3nnc(-n4c(C)ccc4C)s3)C2)c1OC` (centres undefined), the inhibition was -1.48%.

With `Cc1ccc(C(=O)c2oc3ccccc3c2NC(=O)COc2ccc(Cl)c(C)c2)cc1`, the inhibition was 3.91%.

Turning to `COc1cccc(NC(=O)Cn2c(=O)oc3cc(S(=O)(=O)N4CCCCC4)ccc32)c1`, the inhibition is 22%.

On to `Cc1ccc(-n2nnc3c(SCC(=O)NCC4CCCO4)ncnc32)cc1` (centres undefined), for which the inhibition was active: 46.4%.

On to `Cc1c(C)n(Cc2ccc(Cl)cc2)c2ccc(C(=O)N3CCN(c4ccccc4F)CC3)cc12`, for which the inhibition was 10.9%.

`COc1cc(C2CC(=O)Nc3cc4c(cc32)OCO4)cc(OC)c1O` (centres undefined): the inhibition is -3.56%.

Turning to `CC(C)COc1ccc(C(=O)N2CCCCC2CCN2CCOCC2)cc1` (centres undefined), the inhibition is -5.96%.

With `COCCc1ccc(OCC(O)CNC(C)C)cc1` (centres undefined), the inhibition was active: 33.9%.

On to `COc1ccc(OC)c(CCNC(=O)c2nc(-c3ccc(Cl)cc3)n3c2CCCCC3)c1`, for which the inhibition stood at 1.8%.

Consider `CCOc1ccccc1Nc1sc(C(=O)c2ccccc2)c(N)c1C(=O)Nc1ccc(F)cc1`, for which the inhibition came to 0.0544%.

On to `Cc1ccc(Cn2ccnc2SCC(=O)NCc2ccccc2)cc1`, for which the inhibition worked out at 20%.

As for `Cc1nc(-c2ccc(Cl)cc2)sc1CCNC(=O)C(=O)Nc1ccc2c(c1)OCO2`, the inhibition was 17.7%.

For `CSc1ccc(CCNC(=O)Cn2nc(C)n3c(cc4sccc43)c2=O)cc1`, the inhibition is -9.26%.

On to `Cc1nn(CC(=O)NC2CC2)c(=O)c2cc3cc(F)ccc3n12`, for which the inhibition came out at 10.3%.
